Experimental data taken from patent US3943256A (priority 1974, dated 1976).

Conditions: distillation at 760 torr

SMILES: FCOCC(F)(F)C(F)(F)F [V, Fluoromehtyl 2,2,3,3,3-pentafluoropropyl ether]
- stability to heat on distillation: unstable to heat and decomposed with the formation of hydrogen fluoride
